{"source": "paper PMC5836133", "note": "Some of the results follow. At the low end of the ranking the order means little."}
{"test_system": "T1, GST-NbGlk1(82-244)", "T1 sequence": "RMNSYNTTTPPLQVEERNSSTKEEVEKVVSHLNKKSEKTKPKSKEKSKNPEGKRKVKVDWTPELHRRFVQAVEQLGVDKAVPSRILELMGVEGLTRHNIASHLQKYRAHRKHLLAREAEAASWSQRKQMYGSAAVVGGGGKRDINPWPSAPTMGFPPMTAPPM", "experiment": "protein-binding microarray;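 note: rank-based score ranging −0.5 to +0.5 with E above 0.45 taken as significant binding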", "conditions": "NbGlk1 is a Golden2-like transcription factor of Nicotiana benthamiana; high values mean tight binding; most listed sequences are background and not binding sites; double strand, one strand shown", "units": {"binding signal": "E-score"}}
{"sequence": "AGTACCTG", "binding signal": -0.129}
{"sequence": "ACTATGTC", "binding signal": -0.0704}
{"sequence": "ATGCGTTG", "binding signal": -0.0639}
{"sequence": "AACCAGGT", "binding signal": -0.214}
{"sequence": "ATCTCTGG", "binding signal": 0.205}
{"sequence": "ACCCTGGA", "binding signal": -0.125}
{"sequence": "ACTGGGTA", "binding signal": 0.0359}
{"sequence": "ACGCGTGG", "binding signal": -0.000566}
{"sequence": "AGTACGGA", "binding signal": 0.00996}
{"sequence": "AAAACGCT", "binding signal": -0.0849}
{"sequence": "AGGGGGTC", "binding signal": -0.304}
{"sequence": "ACTCGAGA", "binding signal": 0.0784}
{"sequence": "ACGTGTTG", "binding signal": -0.0436}
{"sequence": "AGGAGGCC", "binding signal": -0.301}
{"sequence": "AGTACAAG", "binding signal": -0.115}
{"sequence": "ATGGTCAG", "binding signal": -0.0491}
{"sequence": "ATGCTGTG", "binding signal": 0.0921}
{"sequence": "AGGGGAGC", "binding signal": -0.258}
{"sequence": "AAGGTTGG", "binding signal": -0.222}
{"sequence": "ATGGAGGG", "binding signal": -0.16}
{"sequence": "AGGGGTAG", "binding signal": -0.169}
{"sequence": "CACCAACA", "binding signal": -0.0219}
{"sequence": "AGACACCT", "binding signal": -0.0591}
{"sequence": "AGGTCGGA", "binding signal": 0.0259}
{"sequence": "ATAAGTCG", "binding signal": -0.088}
{"sequence": "AGTGAAAG", "binding signal": -0.101}
{"sequence": "ACAACGAG", "binding signal": 0.0714}
{"sequence": "ATTGGCGG", "binding signal": -0.0331}
{"sequence": "ATATCAGA", "binding signal": 0.343}
{"sequence": "AACTTCTA", "binding signal": -0.0215}
{"sequence": "ACCGCCGA", "binding signal": -0.0341}
{"sequence": "AGCCCCCA", "binding signal": -0.375}
{"sequence": "AGCCTGCG", "binding signal": -0.298}
{"sequence": "ACCCTGAA", "binding signal": -0.103}
{"sequence": "AATCCCCG", "binding signal": 0.362}
{"sequence": "AGGTAAAA", "binding signal": 0.106}
{"sequence": "AAGTCATC", "binding signal": -0.231}
{"sequence": "AGCTAACG", "binding signal": -0.192}
{"sequence": "AGATACAC", "binding signal": 0.183}
{"sequence": "CAAAATAC", "binding signal": 0.244}
{"sequence": "AGACCGTC", "binding signal": -0.239}
{"sequence": "AGTCCTAA", "binding signal": -0.165}
{"sequence": "ACTGATAT", "binding signal": 0.33}
{"sequence": "ACTATCGC", "binding signal": -0.0293}
{"sequence": "AGCATTGC", "binding signal": -0.132}
{"sequence": "AATGACCC", "binding signal": -0.24}
{"sequence": "AGAAGGAC", "binding signal": -0.222}
{"sequence": "ACGCTGGG", "binding signal": -0.209}
{"sequence": "ACCAATCC", "binding signal": 0.129}
{"sequence": "ACCAGAGT", "binding signal": -0.21}
{"sequence": "AATCTCAC", "binding signal": 0.394}
{"sequence": "ATCGCATC", "binding signal": 0.189}
{"sequence": "ATAATGCA", "binding signal": 0.192}
{"sequence": "AGAAAGGA", "binding signal": 0.0249}
{"sequence": "AATACGTC", "binding signal": 0.14}
{"sequence": "ACTCATGC", "binding signal": -0.101}
{"sequence": "ATCCGAAG", "binding signal": 0.192}
{"sequence": "CACTCTCA", "binding signal": -0.217}
{"sequence": "ACTAGTAC", "binding signal": -0.0323}
{"sequence": "ATGGCAGC", "binding signal": -0.181}
{"sequence": "ACTGTGCT", "binding signal": -0.161}
{"sequence": "ATTAAAAG", "binding signal": 0.136}
{"sequence": "AGAGTAAC", "binding signal": -0.0594}
{"sequence": "AACCTTAG", "binding signal": -0.0856}
{"sequence": "CAATTCTC", "binding signal": 0.0898}
{"sequence": "AACGATCT", "binding signal": 0.151}
{"sequence": "AGGGGTGA", "binding signal": -0.0964}
{"sequence": "AGGATAGC", "binding signal": 0.0187}
{"sequence": "ATATAAGA", "binding signal": 0.21}
{"sequence": "ACACCGAA", "binding signal": 0.143}
{"sequence": "AATCAGCC", "binding signal": 0.211}
{"sequence": "AGGGCCCT", "binding signal": -0.312}
{"sequence": "CACTAGCC", "binding signal": -0.187}
{"sequence": "CACAGTCA", "binding signal": -0.0461}
{"sequence": "ACGATTCA", "binding signal": 0.109}
{"sequence": "AGTGGTAG", "binding signal": -0.0335}
{"sequence": "AATAAAGA", "binding signal": 0.192}
{"sequence": "AATGTCGA", "binding signal": 0.0139}
{"sequence": "CACAAGCA", "binding signal": -0.0607}
{"sequence": "ACTTCGAG", "binding signal": -0.164}
{"sequence": "AGAATTTG", "binding signal": 0.293}
{"sequence": "ACTGAGTC", "binding signal": -0.206}
{"sequence": "ATTCAAAC", "binding signal": 0.0715}
{"sequence": "AAATCATA", "binding signal": 0.343}
{"sequence": "ATGAATCA", "binding signal": 0.175}
{"sequence": "ACGTACAA", "binding signal": 0.0901}
{"sequence": "ACGCGTAC", "binding signal": -0.0754}
{"sequence": "ATTGAAAG", "binding signal": 0.0488}
{"sequence": "AGGGGTAA", "binding signal": 0.0854}
{"sequence": "AGGGGCCG", "binding signal": -0.278}
{"sequence": "AGAGTCAT", "binding signal": 0.0401}
{"sequence": "AAATCAAC", "binding signal": 0.349}
{"sequence": "ACATTTAG", "binding signal": -0.00602}
{"sequence": "CAGATGTA", "binding signal": -0.0502}
